From PubChem BioAssay AID1508623 (National Center for Advancing Translational Sciences (NCATS), 2021)
In all, about 48,000 compounds went through this assay and about 450 (0.94%) were called active. Inconclusive results (about 19%) are left out. The call rests on the fitted dose curve; in most records, active means well fitted inhibition curve with a large enough effect; inconclusive means small, poorly fitted or top-dose-only effect; inactive means no such curve, though single readings can be large or run the other way. The list shows a part of the results.

Test: Primary qHTS for Identification of Small Molecule Inhibitors of Huntingtin Promoter Activity; further: nearly all actives have a fitted effect of over 50% in size
Conditions: HEK293 HTT promoter firefly luciferase reporter (activity 0% = vehicle and -100% = no light), 24 h; series mostly up to 57.5 µM; activity change, negative = inhibition: at the top concentration
How it was run: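 Luminescence was read after Dual-Glo reagent and a 10 min room-temperature incubation. Values were normalized to vehicle (0% activity) and zero RLU (-100% activity). Reporter HEK293 cells had been exposed to compounds (up to 57.5 uM final) for 24 h.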

Activity change, negative = inhibition, inactive:
CC(=O)c1ccc(N2CCN(C(=O)Cn3ncc4c3-c3ccccc3OC4)CC2)cc1 -37.9%, COc1ccccc1/C=C/c1nc(C#N)c(NC(C)c2ccccc2)o1 (stereo not given) -4.7%, Cc1c(Cl)cccc1NC(=O)CN1C(=O)CSc2ccc(S(=O)(=O)N3CCCC3)cc21 -24.1%, CC(C)(C)C(=O)OCOC(=O)C1N2C(=O)CC2S(=O)(=O)C1(C)C (stereo not given) 9.13%, CCc1ccc(Sc2cc(C(=O)NCCCN3CCCC(C)C3)c3ccccc3n2)cc1 (stereo not given) -15.1%, Cc1ccccc1CCNCc1c(C(=O)O)c(C)n(Cc2c(F)cccc2Cl)c1C -13.7%, Cc1ccc(NC(=O)CN2CCN(C3CCCCC3)C(=O)C2=O)cc1 -20.6%, O=c1cc(COc2cccc(C(F)(F)F)c2)nc2sc3c(n12)CCCC3 -4.53%, Cc1ccc(-n2ncc(C(=O)N3CCN(C4CCCCC4)CC3)c2C2CCN(C(=O)OC(C)(C)C)CC2)cc1 8.59%, CC(C)NC(=O)c1nn(C)c2c1CS(=O)(=O)c1ccccc1-2 -0.983%, COC(=O)c1cc(Cl)ccc1NC(=O)Cn1c(C)cc(C)c(C#N)c1=O -7.23%, CC(=O)Nc1ccc2nc(SCc3ccccc3)sc2c1 29.8%, COc1ccccc1CNc1nc(-c2ccco2)nn1S(=O)(=O)c1ccc(C)cc1 30.7%, CCOc1ccccc1CN(CCc1ccc2c(c1)OCO2)Cc1cc(OC)c(OC)cc1OC -10.8%, CCn1c(=O)c2sccc2n2c(CCCC(=O)N3CCN(c4ccccc4OC)CC3)nnc12 -17.3%, CCOC(=O)N1CCC(NC(=O)c2cnn(-c3cccc(C)c3)c2C2CCN(C(=O)OC(C)(C)C)CC2)CC1 4.75%, COc1ccc(CNC(=O)C(=O)NCC(c2cccs2)S(=O)(=O)c2ccc(C)cc2)cc1 (stereo not given) -15.3%, CCn1c(SCC(=O)Nc2cccc(Cl)c2)nnc1-c1nonc1NC(C)=O -18.2%, Cc1ccc(-c2nsc(NC(=O)c3oc4cc(C)c(Cl)cc4c3C)n2)cc1 -1.26%, COc1cc2[nH]c(=O)n(Cc3ccc(C(=O)N4CCN(c5cccc(C)c5C)CC4)cc3)c(=O)c2cc1OC -12.7%, COc1ccc(CNC(=O)c2cc(Nc3ccc(OC)cc3OC)nc3ccccc23)cc1 16.6%, COc1ccc(CCNC(=O)Cn2nnc(-c3cccc(C(F)(F)F)c3)n2)cc1OC 16.6%, Cc1ccc(-n2nc(CO)c(C(=O)NCCO)n2)cc1 40.4%, CCOc1ccc(NC(=O)c2oc3ccccc3c2NC(=O)Cc2ccc(OC)c(OC)c2)cc1 5.67%, O=C(Nc1ccc(O)c(-c2nc3ccccc3o2)c1)c1cccs1 -10.3%, Cc1ccc(C)c(CN2C(=O)c3ccccc3Sc3ccc(C(=O)NCCCOC(C)C)cc32)c1 -17.1%, O=C(CSc1n[nH]c(-c2ccccc2Cl)n1)N1CCN(c2ccc(F)cc2)CC1 -19.9%, CCOC(=O)c1ccc(N2C(=O)c3n[nH]c(C)c3C2c2ccc(C(C)C)cc2)cc1 (stereo not given) 3.74%, CC(C)c1nn2c(=O)cc(COC(=O)c3ccc(NC(=O)c4ccccc4Cl)cc3)nc2s1 -11.7%, CCC(Sc1nc2ncccc2[nH]1)C(=O)Nc1ccccc1F (stereo not given) -26%, COc1ccc2c(CNCc3cccs3)c(C(=O)O)n(Cc3ccccc3C)c2c1 -2.68%, COc1cc(OC)c(N(C)C(=O)c2cc3c(s2)-c2ccccc2OC3)cc1Cl -21.4%, O=C(OCC1CCCO1)c1ccc2c(c1)N(Cc1ccc(F)cc1)C(=O)c1ccccc1S2(=O)=O (stereo not given) -5.91%, Cc1ccc(Cl)cc1NC(=O)N1CCC(CN2CCc3ccccc3C2)CC1 -28.4%, CCC(=O)NCc1nc2ccccc2n1Cc1ccccc1 -7.39%, Cn1cccc1-c1cc2n(n1)CCC(=O)N2CC(=O)Nc1ccc(F)cc1Cl 0%, Cc1ccc(S(=O)(=O)N2CCCc3cc(NC(=O)c4cccc(Cl)c4)ccc32)cc1 -25.1%, CCOC(=O)c1c(C)[nH]c(C)c1S(=O)(=O)N1CCC(C(=O)NCc2ccc(OC)cc2)CC1 -4.44%, Cc1c(NC(=O)Cc2ccccc2)cccc1-c1nc2cccnc2s1 -7.85%, CCOc1ccc(NC(=O)c2cc3nc(-c4ccc(OC)cc4)cc(C(F)(F)F)n3n2)cc1 -8.16%, COC(=O)c1ccc2c(=O)n(CCCCCC(=O)N3CCN(c4cccc(C)c4C)CC3)c(=O)[nH]c2c1 -26.8%, COCCCNc1nc2c(-c3cccc(Br)c3)nnn2c2ccccc12 3.74%, CCS(=O)(=O)N1CCc2cc(C(=O)NCc3ccc(C)cc3)ccc21 -14.9%, O=C(CSc1nc2c([nH]c3ccccc32)c(=O)n1-c1ccc(F)cc1)Nc1ccc2c(c1)OCCO2 -23.6%, Cc1cccc(-c2cc(-c3ccccc3)nc(SCC(=O)Nc3ccccc3)c2C#N)c1 -2.62%, Cc1ccc(S(=O)(=O)N(CC(O)Cn2c3ccccc3c3ccccc32)c2cccc(C(=O)NCCO)c2)cc1 (stereo not given) -24.6%, CCC(Cn1nnc2ccccc2c1=O)NC(=O)Nc1ccccc1Cl (stereo not given) -14.5%, CN1CCN(CC(=O)N2c3ccccc3C(=O)Nc3cccnc32)CC1 -2.71% [at 6.01 µM], Cc1c(C(=O)NCc2ccc(Cl)cc2)sc2nc3n(c(=O)c12)CCC3 -3.71%, COCCNC(=O)CN1C(=O)CCn2nc(-c3cn(C)c4ccccc34)cc21 -17.4%, COc1ccc(-c2nc3n(n2)C(c2ccccc2)C(C(=O)Nc2cccnc2)=C(C)N3)cc1 (stereo not given) -25.7%, CCOC(=O)N1CCN(CCC(=O)Nc2cccc(F)c2)CC1 -11.4% [at 11.5 µM], Cc1c(C(=O)O)oc2c1-c1nn(Cc3ccccc3Cl)cc1CC2 -28%, COc1cc([C@@H]2Nc3c(F)cccc3[C@@H]3C=CC[C@@H]32)cc(Br)c1OC -23%, CC(=O)N(CC(O)CO)c1c(I)c(C(=O)NCCO)c(I)c(C(=O)NCC(O)CO)c1I (stereo not given) 5.02%, COc1ccc2c(Sc3ccc(C)cc3)c(C(=O)NC(C)c3ccccc3)[nH]c2c1 (stereo not given) -18.9%, Cc1ccc(Sc2ccc(N3CCC(C(=O)Nc4ccc(Cl)cc4)CC3)nn2)cc1 -9.77%, CCc1ccc(C(=O)c2cn(CC(=O)NCc3ccc(C)cc3)c3nc(C)ccc3c2=O)cc1 -4.17%, CCOC(=O)CCNC(=O)N1CCN(S(=O)(=O)c2ccc3c(ccn3C)c2)CC1 -27.2%, Cc1ccc(N2C(=O)C(CC(=O)Nc3ccc(F)cc3)N(Cc3ccc4c(c3)OCO4)C2=O)cc1 (stereo not given) -17.9%
